# From the supplement of paper PMC3334620
# The full ranking holds about 33,000 sequences; the median of “E-score (-0.5 to 0.5)” is about -0.032, and the highest 2% start at about 0.36. The list shows a part of the results.
# Biological target: T1, Sko1 (UniProt Q02100)
# T1 sequence: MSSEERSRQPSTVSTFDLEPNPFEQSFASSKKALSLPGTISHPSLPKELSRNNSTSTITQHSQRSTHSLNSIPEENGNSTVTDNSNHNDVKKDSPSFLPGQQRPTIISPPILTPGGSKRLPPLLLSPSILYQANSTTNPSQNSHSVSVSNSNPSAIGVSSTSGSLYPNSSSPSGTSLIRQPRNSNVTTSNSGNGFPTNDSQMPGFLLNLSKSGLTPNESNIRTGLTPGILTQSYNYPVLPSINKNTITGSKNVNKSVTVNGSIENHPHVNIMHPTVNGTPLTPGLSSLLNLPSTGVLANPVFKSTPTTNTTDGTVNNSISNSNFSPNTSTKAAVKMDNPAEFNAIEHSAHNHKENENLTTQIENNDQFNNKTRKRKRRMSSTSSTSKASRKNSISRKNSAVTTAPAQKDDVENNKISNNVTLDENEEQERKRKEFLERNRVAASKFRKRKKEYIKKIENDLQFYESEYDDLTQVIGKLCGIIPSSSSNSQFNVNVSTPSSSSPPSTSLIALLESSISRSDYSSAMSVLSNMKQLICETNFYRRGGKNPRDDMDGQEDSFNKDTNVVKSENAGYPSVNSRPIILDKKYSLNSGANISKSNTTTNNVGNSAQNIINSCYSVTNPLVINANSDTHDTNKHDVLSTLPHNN
# Assay: PBM E-score (8-mer binding enrichment) (E-score (-0.5 to 0.5)); higher = stronger / more preferred TF binding; most listed sequences are background and not binding sites
# Settings: protein concentration: 200 nM; construct: GST-full length
# Summary of the method: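 Using PURExpress in vitro transcription/translation, GST-tagged yeast transcription factors were made in full-length or DNA-binding-domain form. These were applied at about 100-200 nM to double-stranded universal all-10-mer Agilent arrays, and bound protein was detected with fluorescent anti-GST. Scans were normalised with masliner before the Universal PBM Analysis Suite assigned E-scores to ungapped eight-base words pooled with their reverse complements.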
row,Sequence,PBM E-score
1,CACTCACC,-0.112
2,AGAAGAAT,0.0232
3,AGTCCCCC,-0.312
4,ATGTCCCC,-0.167
5,ATTACTTC,0.105
6,CCTTTGGA,-0.296
7,CTCTTAAA,0.0524
8,CTTATATC,0.207
9,AGGATAGA,-0.0612
10,AGATCCCC,-0.171
11,CCTAATCA,0.0917
12,AGCCCATG,-0.0868
13,ATGGCATA,0.126
14,AGTCTCGG,-0.24
15,CGACTATA,0.197
16,AGCCCTAA,-0.0892
17,ACACACGA,0.213
18,CTATCCAC,-0.127
19,ACTGGATC,-0.116
20,ATACTGCA,-0.00618
21,CGCCACTC,-0.102
22,CAGATCAG,-0.00687
23,AAAGCGCC,-0.172
24,AAATGAAT,0.0285
25,AGATAATA,0.164

row,Sequence,PBM E-score
1,CGTTCCTA,0.047
2,AGAGAAAT,0.15
3,AAACGTGG,0.213
4,GAGGTGCA,-0.0175
5,GCTCCTAA,-0.0432
6,AGGATCCC,-0.148
7,CCCTCGCA,-0.183
8,GGTCAAAC,-0.0302
9,GCAACTGA,0.0735
10,GCTCAGAA,-0.0677
11,GTCGGAAC,-0.0708
12,ACACGCAG,0.184
13,GGGATAAA,-0.0675
14,CCTTTTGC,-0.208
15,ACTTTAAG,0.156
16,GCATCCGC,-0.0501
17,ACGCCTGC,-0.173
18,ATCGGCCC,-0.133
19,AAACAGAA,0.0315
20,CCTCACTA,0.00316
21,TATTAGGA,0.126
22,CTTCCAGA,-0.114
23,CTCATACA,0.0729
24,CGGCGTAA,0.175
25,AATTCCAA,0.0336

row,Sequence,PBM E-score
1,GCATGTGA,0.00111
2,GTCGCATA,0.267
3,GACATGCA,0.0403
4,ATGGGTCG,-0.179
5,CGACAGCA,-0.0646
6,CGACCTTC,-0.189
7,AGGCCTTC,-0.0878
8,ACCTGAGT,-0.0461
9,AGATACAG,0.0229
10,ACTGGCAG,-0.222
11,GATCTCGA,-0.11
12,GGACGGTA,-0.00632
13,AGGACGAT,0.05
14,CGCGCATA,0.0284
15,AGGAACCG,-0.113
16,CACGCGAC,0.213
17,ATCGGAAT,0.0673
18,GCCTGTCA,-0.157
19,CCTCTGGA,-0.152
20,ACATAAGG,0.199
21,CCGTTCGC,-0.129
22,AACTGACG,0.363
23,ACACCCTA,0.0359
24,AAGCAACC,0.133
25,AGTTGAAG,-0.187

row,Sequence,PBM E-score
1,CCGCAGCC,-0.206
2,CACATAAC,0.0655
3,AACACATC,0.105
4,GGTTACTA,-0.155
5,AGAGCGCT,-0.0154
6,ATCCGACG,0.156
7,CCTTTAAA,0.102
8,GCGACGAA,0.0338
9,ACGTAAAA,0.463
10,AAGCAATG,0.0184
11,TAAGGCTA,-0.0609
12,AAGAGATT,0.0256
13,ACCTTACA,-0.0158
14,CCGCACGC,-0.0325
15,CCCTTGTC,-0.249
16,GGAGATAA,0.0184
17,ATAGTGCC,-0.161
18,CTAATGCC,-0.0148
19,GGTATCGA,-0.0372
20,ACCTCACG,0.124
21,AGAGGATG,-0.0999
22,AACACAGG,-0.237
23,CGTGAACC,-0.0441
24,CTTCGGTA,0.0125
25,AGTTCGAA,0.0291

row,Sequence,PBM E-score
1,GTAACAAA,0.235
2,CACTGACC,-0.26
3,CTCTCAAC,-0.00822
4,GCCTCTTA,-0.13
5,AGGCTAAG,-0.147
6,CGATTACC,-0.0987
7,AGACAAAT,0.141
8,CTTCGCTA,0.078
9,TCAGAGAA,0.00926
10,CATATAAG,0.0398
11,ACCGTATC,0.00217
12,CTTCATAA,0.0763
13,AATACCGC,-0.0868
14,CCACTAGG,-0.399
15,CATTGACC,0.114
16,GGGTCCTA,-0.285
17,ACTTCCAT,0.105
18,GGTCGCAC,-0.0515
19,CGACAACA,0.147
20,ATTTTCCA,0.109
21,GCTGTGCC,-0.124
22,CCAATAAG,-0.0069
23,GAGCTACC,-0.212
24,GAGAAGCC,-0.267
25,TGCCCGAA,0.0767

row,Sequence,PBM E-score
1,GTATCCGA,-0.0312
2,CCACGGAA,0.00634
3,GAAGTCGC,-0.139
4,ACGCCTTA,-0.00766
5,CGTCAGTA,0.327
6,AAAACGAG,0.065
7,CCGGCGAG,-0.247
8,GAGGGAGC,-0.34
9,AGGTTTAA,-0.0197
10,TGATATAA,0.238
11,ATCCCCTG,-0.173
12,ACTGCTTG,-0.192
13,ACTACAGA,0.228
14,GTCATCAC,0.368
15,AATATTAG,0.222
16,GCCTCTCC,-0.41
17,GAACACAA,0.0558
18,ATCGCGCA,0.0939
19,AAGCCATC,-0.0222
20,ATGCTGAA,0.0457
21,CAGCCGAC,-0.266
22,ATTAGTTA,0.262
23,CACGTCCA,0.254
24,AGACCTGA,-0.227
25,TCCTTAGA,-0.103

row,Sequence,PBM E-score
1,AGACTATC,-0.0534
2,ATTCAGTG,-0.116
3,TAGGGAGA,-0.0896
4,AGGCGTGC,-0.0649
5,ACAGTAGG,-0.082
6,AGCGCACG,0.0406
7,AACACTGA,0.038
8,GCAGAGCC,-0.218
9,CTATTGCC,-0.263
10,AACTCATC,0.118
11,GGGCTAAC,-0.164
12,CGGCGTGC,-0.177
13,AGAATCAA,-0.0775
14,CCGTTCAA,-0.222
15,AACGGAAG,-0.0959
16,GTAATCCA,0.193
17,CACGCTAG,-0.052
18,CCGAAACC,-0.255
19,ACTCCATG,-0.171
20,GTGCTACA,0.0645
21,CATCTGCA,0.00281
22,GGATCCCC,-0.403
23,CTTGGCCC,-0.181
24,AGCTTGTG,-0.00367
25,GTTGCCCA,0.00341

row,Sequence,PBM E-score
1,TTCGAAAA,0.187
2,AGGATGAG,-0.162
3,TAGCAGAA,0.0771
4,ATTTAGCA,0.133
5,CCTCTGGC,-0.239
6,AGGGAGAC,-0.192
7,ACGTGGAA,0.311
8,AAGTAGTA,0.0972
9,ATACTCCC,0.0176
10,ACCAAGAA,0.172
11,CGCGAATC,0.137
12,CAATGAAG,0.0878
13,AATAGTAT,0.161
14,ATGGGGCC,-0.419
15,AACAGAGA,-0.0711
16,CTATGTTC,-0.0134
17,CCATCAAC,0.0412
18,AGACCACT,0.0537
19,AATAAGTC,0.0453
20,GCCAGCGA,-0.296
21,ACACTAGC,-0.0734
22,AACGGTTA,-0.175
23,AACTTATT,0.123
24,CGGACACG,0.0454
25,AACTGTAG,-0.241

row,Sequence,PBM E-score
1,AAGTATCC,-0.0882
2,CGGGGGTC,-0.208
3,AAATACAA,0.218
4,GCCTGTAC,-0.103
5,CACTTCGC,0.127
6,GGGAACCC,-0.24
7,CATGAAAA,0.088
8,CGACGAGA,-0.0238
9,CCGGCTCG,-0.183
10,TACATCAA,0.255
11,CCGACTCG,-0.167
12,AGATTTGG,-0.168
13,CACAACCA,-0.00372
14,GAGTGGGC,-0.261
15,AATTCTGC,0.0671
16,AAGCGGCG,-0.118
17,CTATCGAG,-0.0846
18,CCGTACTC,-0.132
19,GGTCACCA,-0.28
